{"source": "PubChem BioAssay AID1346428", "about": "(National Center for Advancing Translational Sciences (NCATS), 2018)", "note": "Screen size: about 48,000 compounds; about 1,200 (2.5%) were called active. Another 2% or so got no clear call; they are omitted.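 The calls were made as follows: active = activation of at least 60% and not above a set upper limit (about 1 call in 100 departs from these limits); inconclusive = activation of 40% to 60%, or above that upper limit; inactive = activation under 40%.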 The list shows a part of the results.", "data": [{"target": "Probable G-protein coupled receptor 32 (Homo sapiens) (UniProt O75388)", "sequence (O75388 whole entry, looked up, the tested form may be a part)": "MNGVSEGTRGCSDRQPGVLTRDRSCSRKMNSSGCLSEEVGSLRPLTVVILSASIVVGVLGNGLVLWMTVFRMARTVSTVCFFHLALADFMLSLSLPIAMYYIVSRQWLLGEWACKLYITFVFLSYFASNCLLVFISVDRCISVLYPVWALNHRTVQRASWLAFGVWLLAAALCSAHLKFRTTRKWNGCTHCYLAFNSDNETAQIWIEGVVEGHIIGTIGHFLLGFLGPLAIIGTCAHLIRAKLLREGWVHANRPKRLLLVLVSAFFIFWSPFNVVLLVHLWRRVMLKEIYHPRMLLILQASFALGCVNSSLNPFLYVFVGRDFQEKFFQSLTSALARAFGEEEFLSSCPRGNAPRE", "assay": "qHTS for Agonists of Human Resolvin D1 Receptor DRV1; also: 0% is about no effect", "conditions": "CHO-K1 GPR32 beta-arrestin PathHunter luminescence, 90 min; at 76.9 µM; stronger effect = higher value; zero percent set by DMSO-only wells", "in_short": "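Agonism was scored by beta-Gal fragment complementation (chemiluminescent read, 1 h detection at ambient temperature) reporting beta-arrestin binding to GPR32 in engineered CHO-K1 cells. Compound treatment lasted 90 min at 37 C, normalized to a DMSO basal control.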", "values": [{"smiles": "COC(=O)c1ccc(OCC2c3cc(OC)c(OC)cc3CCN2C(=O)c2ccccc2C)cc1", "note": "(centres undefined)", "activation": "inactive: -2.88%"}, {"smiles": "COc1ccccc1N1CCN(CCCCNC(=O)c2ccc3ccccc3c2)CC1", "activation": "inactive: -6.46%"}, {"smiles": "CC(=O)Oc1ccc(C2(c3ccc(OC(C)=O)cc3)C(=O)Nc3ccccc32)cc1", "activation": "inactive: -11.2%"}, {"smiles": "CCc1cccc(CC)c1NC(=O)c1c(C)oc2ccc(O)c(CN3CCN(C)CC3)c12", "activation": "inactive: 6.25%"}, {"smiles": "Cc1cccc(N2CCN(C(=O)Cn3ncc4c3-c3cc(C)ccc3OC4)CC2C)c1", "note": "(centres undefined)", "activation": "inactive: 2.24%"}, {"smiles": "CCC(C)NC(=O)Cn1c(=O)n(CCCCCC(=O)Nc2ccccc2)c(=O)c2sccc21", "note": "(centres undefined)", "activation": "inactive: -23.3%"}, {"smiles": "CCCCOC(=O)c1ccc(OC(=O)c2sc3ncn(Cc4cccc(F)c4)c(=O)c3c2C)cc1", "activation": "inactive: 9.99%"}, {"smiles": "CCOC(=O)c1[nH]c(C)c(CCC(=O)Nc2ccccc2OCC)c1C", "activation": "inactive: -17.1%"}, {"smiles": "CCc1cccc(C)c1NC(=O)CCCn1c(C)c2cnn(-c3ccccc3)c(=O)c2c1C", "activation": "inactive: -10.4%"}, {"smiles": "CCCN(C(=O)Cc1nc(-c2ccc(OC)cc2)no1)c1ccccc1C", "activation": "inactive: -15.5%"}, {"smiles": "Cc1cccc(N(C)C(=S)Oc2ccc3c(c2)C2CCC3C2)c1", "note": "(centres undefined)", "activation": "inactive: -0.0232%"}, {"smiles": "CN1C(=O)CC(C(=O)Nc2ccc(C(=O)O)cc2)SC1=Nc1ccc(Cl)cc1", "note": "(centres undefined)", "activation": "inactive: -61.2%"}, {"smiles": "Cn1c(=O)c2c(nc(NCCCCO)n2Cc2ccccc2Cl)n(C)c1=O", "activation": "inactive: -3.64%"}, {"smiles": "COc1ccc2c(C)c(CCC(=O)NCCc3ccc(OC)c(OC)c3)c(=O)oc2c1", "activation": "active: 68.2%"}, {"smiles": "COc1ccc(C(=O)Nc2nnc(SCc3cc(=O)c4cccc(F)c4[nH]3)s2)cc1", "activation": "inactive: -4.04%"}, {"smiles": "COc1cc2[nH]c(=O)[nH]c(=O)c2cc1OC", "activation": "inactive: 13.4%"}, {"smiles": "COc1cccc(-c2nnc(SCC(=O)N(C)c3ccccc3)o2)c1", "activation": "inactive: 29.3%"}, {"smiles": "CCN(CC)CCCNC(=O)Cn1ncc2c3ccccc3n(Cc3ccccc3)c2c1=O", "activation": "inactive: 9.32%"}, {"smiles": "CCN(CC)c1ccc(NS(=O)(=O)c2cc(-c3onc(C)c3C)ccc2OC)c(C)c1", "activation": "inactive: -31.4%"}, {"smiles": "Cc1ccc2c(=O)cc(C(=O)Nc3ccc(S(=O)(=O)N4CCCCC4C)cc3)oc2c1C", "note": "(centres undefined)", "activation": "inactive: 13.6%"}, {"smiles": "CCOC(=O)c1ccc(NC(=O)CC2C(=O)N(c3cccc(OC)c3)C(=O)N2Cc2cccnc2)cc1", "note": "(centres undefined)", "activation": "inactive: -8.97%"}, {"smiles": "CC(=O)c1ccc(NC(=O)C(C)n2nc(-c3ccccc3)ccc2=O)cc1", "note": "(centres undefined)", "activation": "inactive: 3.24%"}, {"smiles": "Cc1cc(C)n(C(C)CC(=O)Nc2cccc(C#N)c2)n1", "note": "(centres undefined)", "activation": "inactive: -5.33%"}, {"smiles": "CCc1nc(Nc2ccc(F)c(Cl)c2)c2c3c(sc2n1)CCCC3", "activation": "inactive: 19.3%"}, {"smiles": "Cc1cccc(C)c1NC(=O)Cn1cc(C(=O)c2ccco2)c2ccccc21", "activation": "inactive: -2.57%"}, {"smiles": "O=C(Cn1ncc2c3ccccc3n(Cc3cccc(Cl)c3)c2c1=O)NCCCc1ccccc1", "activation": "inactive: -15.5%"}, {"smiles": "COc1ccc(-c2c(C)nn3c(-c4ccccc4)cc(C)nc23)cc1OC", "activation": "inactive: -23.4%"}, {"smiles": "Cc1cc(O)c(C(c2ccccc2)N2CCN(c3ccccc3)CC2)c(=O)n1Cc1ccco1", "note": "(centres undefined)", "activation": "inactive: -18.9%"}, {"smiles": "CCOc1ccc(-c2nn(-c3ccc(F)cc3)c3c2cnc2ccc(F)cc23)cc1", "activation": "inactive: -1.48%"}, {"smiles": "Cc1ccc2oc(-c3ccc(Cl)cc3)c(O)c(=O)c2c1", "activation": "inactive: 19.3%"}, {"smiles": "Cc1cccc(NC(=O)C2CCCN(S(=O)(=O)c3ccc4c(c3)oc(=O)n4C)C2)c1C", "note": "(centres undefined)", "activation": "inactive: -15%"}, {"smiles": "COC(=O)c1c(NC(=O)COc2ccc(C)cc2Br)sc2c1CCCC2", "activation": "inactive: 3.02%"}, {"smiles": "CCOc1ccc(N(C)S(=O)(=O)c2cc(-c3cc(C)no3)ccc2OC)cc1", "activation": "inactive: -28.7%"}, {"smiles": "Cc1ccc(CNC(=O)CN(C)S(=O)(=O)c2ccc3c(c2)c(=O)n(C)c(=O)n3C)cc1", "activation": "inactive: 1.86%"}, {"smiles": "COc1cccc(N2C(=O)C(CC(=O)Nc3ccccc3)N(CCc3sccc3C)C2=O)c1", "note": "(centres undefined)", "activation": "inactive: -16.5%"}, {"smiles": "CCCCCCCCCCCCCC(=O)OC(C)C", "activation": "inactive: -8.36%"}, {"smiles": "CC(O)(P(=O)(O)O)P(=O)(O)O", "activation": "inactive: -18.1%"}, {"smiles": "CCc1ccccc1NC(=O)CN1C(=O)C2CCCN2c2ccc(S(=O)(=O)N(CC)CC)cc21", "note": "(centres undefined)", "activation": "inactive: -14.2%"}, {"smiles": "CCOC(=O)C(CC)Sc1ncnc2c1c(-c1ccccc1)cn2-c1ccc(OC)cc1", "note": "(centres undefined)", "activation": "inactive: -19.5%"}, {"smiles": "Cc1c(CNC2CCC(C)CC2)c(C(=O)O)c(C)n1Cc1ccc(Cl)cc1", "note": "(centres undefined)", "activation": "inactive: 3.39%"}, {"smiles": "O=C(CSc1nnc(-c2ccccc2)c(-c2ccccc2)n1)NCCc1ccccc1", "activation": "inactive: -59%"}, {"smiles": "CCS(=O)(=O)N1CC(=O)N(c2ccc(Cl)cc2C)C(C)(C(=O)NC2CCCCC2)C1", "note": "(centres undefined)", "activation": "inactive: -3.29%"}, {"smiles": "O=C(NCCc1ccc(F)cc1)C(=O)NCC(c1cccs1)S(=O)(=O)c1ccc(Cl)cc1", "note": "(centres undefined)", "activation": "inactive: 33.1%"}, {"smiles": "Cc1cc(=O)n(CC(=O)N2CCCc3ccccc32)c2c1c(C)nn2-c1cccc(F)c1", "activation": "inactive: 1.39%"}, {"smiles": "Cc1cc(C)c(OCC(=O)N(Cc2ccc(N(C)C)cc2)CC2CCCO2)c(C)c1", "note": "(centres undefined)", "activation": "inactive: -7.16%"}, {"smiles": "CCn1c(=O)c2cc(C(=O)NCc3ccc(F)cc3Cl)sc2c2ccccc21", "activation": "inactive: 9.52%"}, {"smiles": "Cc1ccc(C)c(N(C)C(=O)c2cc3c(s2)-c2ccccc2OC3)c1", "activation": "inactive: -5.25%"}, {"smiles": "COc1ccc2c(c1)c(CC(=O)Nc1cccc(F)c1C)c(C)n2C(=O)c1ccc(Cl)cc1", "activation": "inactive: -9.33%"}, {"smiles": "O=C(Nc1ccc(F)c(F)c1)c1cc(S(=O)(=O)N2CCc3ccccc32)ccc1F", "activation": "inactive: -33.3%"}, {"smiles": "COc1cccc(-n2ccn(CC(=O)Nc3ccccc3F)c(=O)c2=O)c1", "activation": "inactive: 2.73%"}, {"smiles": "Cc1ccc(CNS(=O)(=O)c2cc(C(=O)Nc3ccc(C(C)C)cc3)ccc2F)cc1", "activation": "inactive: 9.47%"}, {"smiles": "COc1ccc(C2=C(C)C(N3CCC(C(=O)NCc4ccco4)CC3)=NS2(=O)=O)cc1", "activation": "inactive: -1.8%"}, {"smiles": "CC(C)NC[C@H](O)COc1cccc2[nH]ccc12", "activation": "inactive: -6.92%"}, {"smiles": "CCc1ccccc1NC(=O)Cn1cc(C(=O)c2ccc(Cl)cc2)c(=O)c2ccc(C)nc21", "activation": "inactive: 0.886%"}]}]}
